From the supplement of paper PMC4604168 (melanoma cell lines)
Some of the results follow. Most values come without repeats; read them as rough.

These compounds were tested on IPC-298 (assay: cell count relative to DMSO control; melanoma cells; higher = more viable cells). Settings: library dose: low library concentration; 72 h.
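Note: cell number obtained by counting DAPI-stained nuclei in high-throughput microscope images with image analysis software, screen run in 1,536-well plates.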

| Compound | cell count [%] |
| --- | --- |
| C=CCNC1=C2C[C@@H](C)C[C@H](OC)[C@H](O)[C@@H](C)/C=C(\C)[C@H](OC(N)=O)[C@@H](OC)/C=C\C=C(/C)C(=O)NC(=CC1=O)C2=O [Tanespimycin] + Cn1cc(/C=C2\C(=O)Nc3cccnc32)c2ccccc21 [GW441756] (first compound 0.002 µM, partner dose 0.4 µM) | 100 |
| CNC(=O)c1cc(Oc2ccc(NC(=O)Nc3ccc(Cl)c(C(F)(F)F)c3)cc2)ccn1 [sorafenib] + c1cc(-c2cnn3cc(-c4ccc(OCCN5CCCCC5)cc4)cnc23)ccn1 [Dorsomorphin] (first compound 0.4 µM, partner dose 0.4 µM) | 98.6 |
| C[C@@H](Oc1cc(-c2cnn(C3CCNCC3)c2)cnc1N)c1c(Cl)ccc(F)c1Cl [Crizotinib] + COc1cc(N2CCC(N3CCN(C)CC3)CC2)ccc1Nc1ncc(Cl)c(Nc2ccccc2S(=O)(=O)C(C)C)n1 [NVP-TAE684] (first compound 0.2 µM, partner dose 0.08 µM) | 109 |
| CNC(=O)c1cc(Oc2ccc(NC(=O)Nc3ccc(Cl)c(C(F)(F)F)c3)cc2)ccn1 [sorafenib] + CCCCCCCCCCCC1=C(O)C(=O)C=C(O)C1=O [Embelin] (first compound 0.4 µM, partner dose 1.2 µM) | 102 |
| CS(=O)(=O)CCNCc1ccc(-c2ccc3ncnc(Nc4ccc(OCc5cccc(F)c5)c(Cl)c4)c3c2)o1 [lapatinib] + O=C(Nc1ccccc1)c1cc([N+](=O)[O-])ccc1Cl [GW9662] (first compound 0.8 µM, partner dose 2 µM) | 92 |
| CS(=O)(=O)CCNCc1ccc(-c2ccc3ncnc(Nc4ccc(OCc5cccc(F)c5)c(Cl)c4)c3c2)o1 [lapatinib] + COc1ccc2c(c1)CCC1C2CCC2(C)C(NCCCCCCN3C(=O)C=CC3=O)CCC12 [U73122] (first compound 0.8 µM, partner dose 0.4 µM) | 96.1 |
| CNC(=O)c1cc(Oc2ccc(NC(=O)Nc3ccc(Cl)c(C(F)(F)F)c3)cc2)ccn1 [sorafenib] + O=C(Nc1ccccc1)c1cc([N+](=O)[O-])ccc1Cl [GW9662] (first compound 0.4 µM, partner dose 2 µM) | 102 |
| CS(=O)(=O)CCNCc1ccc(-c2ccc3ncnc(Nc4ccc(OCc5cccc(F)c5)c(Cl)c4)c3c2)o1 [lapatinib] + COc1ccc(-c2ccc3c(N4CCOCC4)nc(N4C[C@@H](C)O[C@@H](C)C4)nc3n2)cc1CO [KU0063794] (first compound 0.8 µM, partner dose 0.02 µM) | 89 |
| CS(=O)(=O)CCNCc1ccc(-c2ccc3ncnc(Nc4ccc(OCc5cccc(F)c5)c(Cl)c4)c3c2)o1 [lapatinib] + O=C1NC(=O)/C(=C/c2ccc(-c3ccc(F)cc3O)o2)S1 [AS252424] (first compound 0.8 µM, partner dose 1 µM) | 93.5 |
| CNC(=O)c1cc(Oc2ccc(NC(=O)Nc3ccc(Cl)c(C(F)(F)F)c3)cc2)ccn1 [sorafenib] + COc1cc(N2CCC(N3CCN(C)CC3)CC2)ccc1Nc1ncc(Cl)c(Nc2ccccc2S(=O)(=O)C(C)C)n1 [NVP-TAE684] (first compound 0.4 µM, partner dose 0.08 µM) | 92.2 |
| CN1CCN(c2ccc3nc(-c4c(N)c5c(F)cccc5[nH]c4=O)[nH]c3c2)CC1 [Dovitinib] + COc1cc2ncnc(Nc3ccc(Oc4ccccc4)cc3)c2cc1OC [SrcI1] (first compound 0.1 µM, partner dose 2 µM) | 93.6 |
| CN1CCN(c2ccc3nc(-c4c(N)c5c(F)cccc5[nH]c4=O)[nH]c3c2)CC1 [Dovitinib] + CC(C)CCN1c2nc(Nc3cc(F)c(O)c(F)c3)ncc2N(C)C(=O)C1C [BID1870] (first compound 0.1 µM, partner dose 0.2 µM) | 105 |
| CN1CCN(c2ccc3nc(-c4c(N)c5c(F)cccc5[nH]c4=O)[nH]c3c2)CC1 [Dovitinib] + O=C1NC(=O)/C(=C/c2ccc(-c3ccc(F)cc3O)o2)S1 [AS252424] (first compound 0.1 µM, partner dose 1 µM) | 96.3 |
| C=CCNC1=C2C[C@@H](C)C[C@H](OC)[C@H](O)[C@@H](C)/C=C(\C)[C@H](OC(N)=O)[C@@H](OC)/C=C\C=C(/C)C(=O)NC(=CC1=O)C2=O [Tanespimycin] + CCN(CC)CCCCNc1ncc2cc(-c3cc(OC)cc(OC)c3)c(NC(=O)NC(C)(C)C)nc2n1 [PD173074] (first compound 0.002 µM, partner dose 0.1 µM) | 100 |
